Values of other authors, collected in EP0396251A2, “Use of fatty acids for the treatment of diseases associated with cytokines” (NATIONAL UNIVERSITY OF SINGAPORE, priority 1989, dated 1990).
Like-named read-outs stand apart in the source and are kept apart here.

Test system: interferon-induced antiviral state
Conditions: 10µM, cited from earlier work

Row | SMILES | effect on interferon action | effect on interferon action (Pottathil et al., disputed by other groups)
1 | CCCCC1C(=O)N(c2ccccc2)N(c2ccc(O)cc2)C1=O (centres unmarked) [Oxyphenylbutazone] | inhibit interferon action | –
2 | COc1ccc2c(c1)c(CC(=O)O)c(C)n2C(=O)c1ccc(Cl)cc1 [Indomethacin] | – | inhibit interferon action
